Test results: the supplement of paper PMC11417369
This is one part of the list.

These sequences were tested on PF3D7_0420300 AP2 domain 1 (GST-tagged) (assay: gcPBM binding intensity (ln(normalized median fluorescence intensity)); higher = stronger DNA binding).
How it was run: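 In this array assay, P. falciparum DNA-binding domains with a GST tag, expressed in E. coli, were applied for 1 h to primer-extended double-stranded 36-bp intergenic genomic probes and negative controls on an Agilent 4 × 180k array. Bound protein was visualised with Alexa488 anti-GST antibody at 488 nm. Binding intensity is the highest Masliner-normalised natural-log median intensity across replicate spots of either probe orientation.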

| Sequence | gcPBM binding intensity (ln) |
| --- | --- |
| GGATTTTACCATAGCACACATATATGAATATTTTTC [CACACA_site1814] | 9.44 |
| TTGTAACAAAAGTACACACACATTTCTATAAATTTT [CACACA_site2772] | 9.6 |
| CATTTTATTTTCTTTGTGCACAAAAATATTTTTTCT | 9.3 |
| AAAGTTATGATATATACACACATATAAATATTAAAT [CACACA_site6361] | 9.49 |
| TGTTCTAATTTTAATTGTACATATATACATATATAT [XGTACX_site7290] | 9.46 |
| GTAAATATATATATATATATATATATATATATATAT [GTGCAC_negctrl_site239] | 9.16 |
| TTCTGTATACGGTGTGCACACAATTAAAAAAAAAAA [CACACA_site1416] | 9.47 |
| AACATATAAAAATATGCACACACAGGAATACAAACA [CACACA_site8127] | 10.3 |
| TTAAATAACCTCAAGGATAAGAAAAAATTAAAAATT [CACACA_negctrl_site1336] | 9.15 |
| CTTTATATATATTGCGTGCACATTTTTTTTTTTTTT | 9.49 |
| CTATTTAAAATTTGAACACACATTATTTATTTTAAA [CACACA_site3114] | 9.17 |
| GAAATAATAAAATCGACACACAAAAAAAAAAAAAAA [CACACA_site3476] | 9.32 |
| AATAAATACAAAAATGTACACACATATATATATTTT [CACACA_site9167] | 9.56 |
| TCAATATATATAAGAAGTACATGTGAATGAAAAAAA [XGTACX_site1674] | 9.39 |
| ATATCAAATAATTTAGTGCACTTTTTTTTTTCTTTT [GTGCAC_site9629] | 9.24 |
| AAGGAATAAAATTTAGAAGACAATTTTATTTCAGTA [XGTACX_negctrl_site331] | 8.98 |
| GGTATTTTCACATATAGTACACAAAAATAAAATAAA [XGTACX_site2139] | 9.09 |
| TTTTTTTTTTTTTTTTTTTTTTTCTACCTATTTATT [CACACA_negctrl_site94] | 8.35 |
| TATGTATATTGAGATTGTACTTGTAATATTAAACAT [XGTACX_site3878] | 9.07 |
| TTGTATAAAATATGTAGTACAATAATATAACATTTT [XGTACX_site8607] | 9.29 |
| AATAATAAAAATATTGTGCACTTGTATATTTATTAT [GTGCAC_site9963] | 9.3 |
| AAAAAATACCAAAGGGGTACTTACACATAATACTTA [XGTACX_site2111] | 9.29 |
| CATCAAAATGAAGCATGTACATAATATAAATAAATA [XGTACX_site4647] | 9.22 |

| Sequence | gcPBM binding intensity (ln) |
| --- | --- |
| CTTTTTACTTAATACACACACACACCCAAAAAAAAA [CACACA_site948] | 9.97 |
| TTTATACTTTCAAAATGTACATATATATATATATAT [XGTACX_site6241] | 9.1 |
| CTAATCATAAAATATACACACACGGATACATTAAAT [CACACA_site2685] | 10.1 |
| ATTGAAGGGAAATATATAATCATATTCAAAATAAAA [CACACA_negctrl_site728] | 9.15 |
| ATTTCTCTATCGTAATGTACAAAAAAAAGGGAAAAG [XGTACX_site1335] | 9.2 |
| TAATATATAATTTTATGTACATAATTATAAACCCAT [XGTACX_site919] | 9.5 |
| TGAATGCTTTTATGCACACGTACAAAAATATTATAT [CACACA_site2668] | 9.14 |
| AATAAAAATAACCTAACATGCAAAAAAAAAAAAAAA [TGCATGCA_site718] | 9.28 |
| GTCATTAAAAAAATATGTACTTAAATGTATGCATAT [XGTACX_site5951] | 9.13 |
| TATAATAAATCAAATGCACACACACTAATAAAAAAA [CACACA_site7937] | 10.1 |
| GGAATATAAATACATACACACATATATATATATATA [CACACA_site4998] | 9.44 |
| TGTTGTTATAAAAAAAAAAAAAAAAAAAAAAAAAAA [GTGCAC_negctrl_site230] | 8.55 |
| ATATAAAATAAATAAGTGCAGATAAATTTATGTGAC [GTGCAC_site9504] | 9.73 |
| TGTGGTTTTTATAATTGTACATATATATAAATCTAT [XGTACX_site4766] | 9.41 |
| TATATATTATATATATGTACTTATTTATTAATTTAT [XGTACX_site5253] | 9.2 |
| TACATGCTTATTTTAACACACAAATGGTAGTAATAA [CACACA_site766] | 9.29 |
| ATGAATATTTACAATCTTATTATGTTCAAAATTAAT [CACACA_negctrl_site592] | 9.02 |
| TGACGACATTTCTTATGTACTAATTTTTCTTCCTTT [XGTACX_site4391] | 9.21 |
| TAAAAAAAGAAAAAAAGTACATGCTACTTTTATGAT [XGTACX_site7818] | 9.19 |
| CAAAATGATATGACAACACACAACCTATAGTAAGAC [CACACA_site1287] | 9.96 |
| TAATATATAATAAAGTGTACATATGCTTTATTATTA [XGTACX_site1920] | 9.08 |
| AAGTTATACACATCAACACACACATACAACGTGGTG [CACACA_site8312] | 9.79 |
